Screen size: about 16,000 compounds; about 120 (0.75%) were called active. Inconclusive results (about 4%) are left out. Calls come from the whole dose curve; as a rule, active = well fitted inhibition curve with a large enough effect; inconclusive = small, poorly fitted or top-dose-only effect; inactive = no such curve, though single readings can be large or run the other way. Some of the results follow.
Target: Rap guanine nucleotide exchange factor 3 (Homo sapiens) (UniProt O95398)
Assay: Validation qHTS for antagonist of cAMP-regulated guanine nucleotide exchange factor 3 (EPAC1);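 note: plate controls were DMSO for no effect and ATA control for full effect; nearly all actives have a fitted effect of over 75% in size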
Settings: EPAC1 Rap1B-BODIPY-GDP exchange, fluorescence; series mostly up to 150 µM; activity change, negative = inhibition: at the top concentration
Method in brief: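 EPAC1 (100 nM) mixed with 250 nM RAP1B-BODIPY-GDP and 50 uM GDP; compounds in concentration series, 5 min at room temperature. Fluorescence (ex 480/em 540 nm) read every 5 min for 30 min; normalized to ATA control and DMSO.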

Sequence of UniProt O95398 (O95398 whole entry, looked up): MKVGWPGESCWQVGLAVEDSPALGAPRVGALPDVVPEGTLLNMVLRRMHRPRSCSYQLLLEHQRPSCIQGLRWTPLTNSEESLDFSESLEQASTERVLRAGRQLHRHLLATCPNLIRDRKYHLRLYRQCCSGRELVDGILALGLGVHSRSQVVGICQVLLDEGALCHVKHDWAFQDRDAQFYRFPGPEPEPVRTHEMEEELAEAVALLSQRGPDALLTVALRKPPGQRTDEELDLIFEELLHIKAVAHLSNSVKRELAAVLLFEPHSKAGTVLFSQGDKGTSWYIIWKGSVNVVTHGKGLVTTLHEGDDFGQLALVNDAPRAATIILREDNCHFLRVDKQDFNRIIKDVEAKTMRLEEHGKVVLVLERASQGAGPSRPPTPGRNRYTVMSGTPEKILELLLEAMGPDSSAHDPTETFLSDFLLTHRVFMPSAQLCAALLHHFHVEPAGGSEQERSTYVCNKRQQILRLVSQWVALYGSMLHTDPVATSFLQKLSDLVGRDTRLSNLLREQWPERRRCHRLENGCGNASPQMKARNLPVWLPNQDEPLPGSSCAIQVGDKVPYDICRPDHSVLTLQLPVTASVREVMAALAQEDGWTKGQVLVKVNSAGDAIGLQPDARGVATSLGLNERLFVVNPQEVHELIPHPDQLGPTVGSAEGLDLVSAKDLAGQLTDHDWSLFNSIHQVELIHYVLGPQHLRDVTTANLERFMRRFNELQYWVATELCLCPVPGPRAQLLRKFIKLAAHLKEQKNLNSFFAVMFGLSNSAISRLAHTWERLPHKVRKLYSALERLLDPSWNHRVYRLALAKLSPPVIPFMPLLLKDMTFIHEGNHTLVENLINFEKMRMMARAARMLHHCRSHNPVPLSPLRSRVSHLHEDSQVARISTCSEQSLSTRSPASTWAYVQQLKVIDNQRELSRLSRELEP

Activity change, negative = inhibition, inactive:
C#CCN(C1CCCC1)S(=O)(=O)C=C -17.4%
COC(=O)c1cc(-c2c(-c3cc(OC)c(OC)c(OC)c3)noc2C)cc([N+](=O)[O-])c1 -3.29%
COC(=O)N1CCC2(CCCN(C(c3ccccc3)c3ccccc3)C2)CC1 10.7%
COc1ccc(CCNC(=O)c2cnn(-c3nccc(-c4cccs4)n3)c2C)cc1OC 19.8%
CC(=O)NCCNc1ncnc2ccc(-c3ccc4c(c3)OCO4)cc12 3.14%
COc1cc(=O)n2c(c1C(=O)N(C)C(C)c1ccco1)CCN(C(=O)c1ccc(C(C)=O)cc1)CC2 (configuration not stated) -4.72%
COc1ccc2c(c1)OC(C)CN(CCNC(=O)c1cccc(N3CCNC3=O)c1)C2 (configuration not stated) -0.256%
O=C(NCCc1nnc2n1CCN(Cc1ccccn1)CC2)c1ccc(F)cc1 2.66%
CCS(=O)(=O)Nc1cc(C(=O)N2CCCN(C=O)CC2)c2c(c1)nc(-c1ccccc1)n2C 6.38%
COc1ccc(CNC(=O)[C@@H]2CC=C[C@@H]3CCN(C4CCCCC4)C(=O)[C@@H]32)cc1 -9.12%
COC(=O)C1OC(=O)C2OC23[C@]2(C)C(OC(C)=O)CC4C(C)(C)C(=O)CC[C@]4(C)C2CC[C@@]13C (some centres not stated) 12.8%
COC1=CC(=O)C=C(OC)C1=O 17%
CC(C)N1[N]C(=C2C=c3cc(O)ccc3=N2)c2c(N)ncnc21 15.2%
CCc1ccc(C(=O)C(C)CN2CCCCC2)cc1 (configuration not stated) 7.78%
Cc1ccc(CN2CCc3nnc(C(C)NC(=O)c4cc(F)ccc4F)n3CC2)o1 (configuration not stated) -6.42%
CC(=O)Nc1ccc(SCCN2CC[C@@H](C(C)(C)C)CCC2=O)cc1 -6.44%
CCC1C(=O)NCCN1Cc1ccc2c(c1)CN(Cc1cccc(OC)c1)CCO2 (configuration not stated) 11.6%
COc1cc(CN2CCOc3ccc(CN4CCN(CCO)CC4)cc3C2)ccc1F 11.6%
OCc1ccccn1 14.3%
CN(C(=O)c1c(O)c2ccccc2n(C)c1=O)c1ccccc1 11.5%
COc1cc(-c2cc(C)c3c(OC)ccc(OC)c3n2)cc2c1OCCN(Cc1cn(C)nc1C)C2 2.69%
O=C(C[n+]1ccnc2ccccc21)c1ccc(Cl)cc1 11.7%
COc1ccnc(CS(=O)c2nc3ccc(OC(F)F)cc3[nH]2)c1OC (configuration not stated) -11.3%
CC[C@@H]1[C@H]2CCCC(=O)N3CC[C@@H](C[C@H]1O)[C@@H]23 15.5%
O=C(NCCN1Cc2ccccc2OC(c2ccccc2F)C1)c1ccco1 (configuration not stated) 2.09%
COc1cc2c(cc1OC)C(/C=C/c1ccc(OC)c(OC)c1OC)=NCC2 11%
O=C(c1cnccn1)N1CCC2(CC1)CCN(c1cccc(-c3ccccc3)c1)CC2 -2.64%
COc1ccc(O)c(C(=O)N2CCC3(CC2)c2ccccc2[C@@H](NC(=O)c2ccccn2)[C@@H]3OC)c1 8.16%
COc1ccc(CNc2ncncc2-c2ccc(N(C)C)cc2)c(OC)c1 -7.84%
N#CCCn1c(=O)c(CCc2ccccc2)nc2cnc(N3CCOCC3)nc21 8.09%
Nc1nc2[nH]cc(CCc3ccc(C(=O)N[C@@H](CCC(=O)O)C(=O)O)cc3)c2c(=O)[nH]1 18.4%
O=C(c1cnn2cccnc12)N1CCOc2ccc(C(O)C(c3ccccc3)c3ccccc3)cc2C1 (configuration not stated) 13.5%
CCCCCCCCCCCCCCCCOCC(COP(=O)([O-])OCC[N+](C)(C)C)OC (configuration not stated) 18% [at 15.3 µM]
O=C(c1cccc(F)c1)N1CCC2(CCCN(c3ncccn3)C2)CC1 7.34%
COc1ccccc1CN1CCC2(CC1)CCN(C(=O)c1csnn1)CC2 1.24%
COc1ccc(OC)c(CN2CCCC(c3nc(-c4ccncc4)ncc3-c3ccccc3C)C2)c1 (configuration not stated) 12.9%
O=C(c1csnn1)N1CCC2(CC1)CN(c1ccccn1)C2 18.4%
COCCc1ccc(OCC(O)CNC(C)C)cc1 (configuration not stated)
CC(C)(C)NCC(O)COc1cccc2c1C[C@H](O)[C@H](O)C2 (some centres not stated) 6.16% [at 75.8 µM]
COc1ccc(NC(=O)N2CC3(CCN(S(=O)(=O)c4ccccc4)CC3)C2)cc1 20.3%
Nc1nc(=O)n(C2OC(CO)C(O)C2O)cc1Cl (configuration not stated) 18.8%
CCCCC[C@H](O)C=C[C@H]1[C@H](O)CC(=O)[C@H]1CCCCCCC(=O)O 9.61%
COc1ccc(C(=O)c2ccccc2O)c(O)c1
N#Cc1cccc(-c2cc(NCc3cccs3)ncn2)c1 20%
O=C(Cn1cncn1)NCC1Cc2cc(-c3ccsc3)cc(Cl)c2O1 (configuration not stated) 6.69%
CC(C)(C)NC[C@H](O)COc1ccccc1C1CCCC1 -2.7% [at 75.8 µM]
COC(=O)C[C@H]1c2cc(C(F)(F)F)ccc2S(=O)(=O)N1C(C)C -13.7%
Cc1nc2cc(NC(=O)[C@@H]3C[C@@H](Sc4ccccn4)CN3Cc3ccccc3F)ccc2s1 8.09%
COc1cc(-c2cccc(Cl)c2)cc2c1OCCN(C(=O)CCn1ccc(C)n1)C2 9.53%
CC(=O)OC1CCC2(C)C3CC(=O)C4(C)C(CC5OC6(CCC(C)CO6)C(C)C54)C3CC[C@H]2C1 (some centres not stated) -7.46%
COc1ccccc1OCC1CNC(=O)O1 (configuration not stated) 32.5%
COC(=O)C1CCCCN1Cc1ccc2c(c1)CN(C(=O)c1csc(-c3cccs3)n1)CCO2 (configuration not stated) 23%
O=S(=O)(O)c1cc(I)c(O)c2ncccc12 15.7%
c1cc2c3c(c1)c1c(n3CCNC2)CCCC1 -9.26%
O=C(NC(c1cccnc1)C(F)(F)F)c1cnn(-c2nccc(-c3cccs3)n2)c1C1CC1 (configuration not stated) -1.26%
Cc1nc(C(C)NC2CCN(c3cccc(NC(=O)c4ccncc4)c3)CC2)cs1 (configuration not stated) -4.98%
O=C1[C@H](CC[C@H](O)c2ccc(F)cc2)[C@@H](c2ccc(O)cc2)N1c1ccc(F)cc1 0.204%
COc1ccccc1CN1CCC(n2cc(C(=O)N3CCCCC3)nn2)CC1 17.5%
COc1ccc(OC)c(-c2ccnc(-n3ncc(C(=O)NC(C)(C)CO)c3C3CC3)n2)c1 11.9%
CC(C)c1cc(C(=O)N2CCOc3ccc(CN4CCC(Oc5cccnc5)CC4)cc3C2)n[nH]1 23%
CC(C)NCC1CCc2cc(CO)c([N+](=O)[O-])cc2N1 (configuration not stated) 13.4% [at 75.8 µM]
COCCn1c(=O)c(-c2cccc(C#N)c2)nc2cnc(N(C)C)nc21 45.7%
Cc1cnc(C(=O)NCCc2ccc(S(=O)(=O)NC(=O)NC3CCCCC3)cc2)cn1
CCc1ccc2c(O)c3c(cc2c1C(=O)OC)C(=O)c1c(O)ccc(O)c1C3=O 16.6%
COC(=O)[C@@H]1CCCN1Cc1ccc2c(c1)CN(Cc1ccccc1)CCO2 13.6%
O=C(Cc1ccccc1)Nc1nc2ccc(Cl)cc2c2nc(-c3ccco3)nn12
CC(C)NC[C@H](O)COc1cccc2[nH]ccc12
COc1ccc2c(c1)OC(C)(C)C(c1ccccc1)C2c1ccc(OCCN2CCCC2)cc1 (configuration not stated) -6.34%
CC(C)CN1CCCC2(CCN(C(=O)c3csnn3)CC2)C1 20.3%
CC(=O)Nc1ccc(SCCN2CC[C@@H](O)CCC2=O)cc1 5.24%
CC(C)NC(=O)N1CCC2(CC1)CCN(C(=O)c1ccncc1)CC2 35.3%
CC(O)(P(=O)(O)O)P(=O)(O)O 24.6%
CCCCCCCCCCCCCC(=O)OC(C)C 1.26%
Cn1cc(CNC2CCN(c3cccc(NC(=O)c4cccnc4)c3)CC2)cn1 14.8%
CN(C)C(=O)c1ccc(-c2cncnc2NCCN2CCOCC2)cc1 20.7%
Brc1cc(Br)c[n+](CCc2ccccc2)c1 -5.28%
COc1ccc(-c2ccc(C(=O)NCC3Cc4cccc(-c5nc(C)cnc5C)c4O3)o2)cc1 (configuration not stated) 12.9%
Cc1cccc(CNc2ncnc3ccc(-c4cccnc4)cc23)c1 -22.7%
COc1cc2[nH]c(=O)[nH]c(=O)c2cc1OC 16.1% [at 75.8 µM]
CC(=O)Oc1ccc(C2(c3ccc(OC(C)=O)cc3)C(=O)Nc3ccccc32)cc1
COc1ccccc1N1CCN(CCCCNC(=O)c2ccc3ccccc3c2)CC1 1.31% [at 75.8 µM]
CCC1NC(=O)c2cc(S(N)(=O)=O)c(Cl)cc2N1 (configuration not stated) -15.2% [at 75.8 µM]
COc1ccc(CN2CCC(=O)N(CCO)CC2)cc1OC 11.3%
Cc1ncc(COP(=O)(O)O)c(C=O)c1O 4.01%
Cc1cc2nccc(/C=C/c3ccc(N(C)C)cc3)c2cc1C 6.22%
COc1ccc(Oc2ncc3nc(-c4cccs4)c(=O)n(Cc4cccc(OC)c4)c3n2)cc1 7.88%
COc1cccc(Nc2ncc3nc(-c4cc(F)cc(F)c4)c(=O)n(C[C@H]4CCCO4)c3n2)c1 21.9%
Cc1nc2cnc(Nc3ccccc3)nc2n(CCC#N)c1=O -0.683%
O=C(Nc1cccc(F)c1)N1CCCC2(CCN(C(=O)c3ccco3)CC2)C1 5.98%
COc1cccc(-c2cc(NCc3ccc(OC)cc3OC)ncn2)c1 -9%
COc1ccc2[nH]cc(CCNc3ncnc4ccc(-c5ccc6c(c5)OCO6)cc34)c2c1 -21.8%
COc1ccc(NC(=O)N2CC3(CCNCC3)C2)cc1 8.08%
COc1ccc(NC(=O)c2ccc(-c3ccc(-c4noc(C)n4)cc3C)cc2)cc1N1CCN(C)CC1 4.44% [at 75.8 µM]
CCCCNc1ccc(C(=O)OCCN(C)C)cc1
CC(C)[N+]1(C)[C@@H]2CC[C@H]1CC(OC(=O)[C@@H](CO)c1ccccc1)C2 (some centres not stated) 16.6%
C[C@H]1[C@H]2CC[C@H]3C4CC=C5C[C@@H](N(C)C)CC[C@]5(C)C4CC[C@]23CN1C (some centres not stated) -2.63%
Cc1cnc(C)c(-c2cccc3c2OC(CNC(=O)CN2C(=O)c4ccccc4C2=O)C3)n1 (configuration not stated) 2.78%
O=C(c1ccccc1-n1cccn1)N1CCOc2c(cc(-c3ncc(C(F)(F)F)cc3Cl)cc2OCC2CCCO2)C1 (configuration not stated) 1.97%
CCCCCOC(=O)Nc1nc(=O)n([C@@H]2O[C@H](C)[C@@H](O)[C@H]2O)cc1F 12.3%
Cc1nonc1CN(C)C(=O)C1CC12CCN(C(=O)/C=C/c1cccc(Cl)c1)CC2 (configuration not stated) 5.93%
C[N+](C)(CCCCCC[N+](C)(C)C1c2ccccc2-c2ccccc21)C1c2ccccc2-c2ccccc21 25.9%
O=C(Cn1cnnn1)N[C@@H]1C(=O)N2C(C(=O)O)=C(CSc3nncs3)CS[C@H]12
